Source: publication doi:10.1101/2025.02.03.636340 (bioRxiv, 2025)

Target: the molecule itself
Experiment: SiMPull with photobleaching step analysis

B1: HA-SNAP-mGluR5 (human metabotropic glutamate receptor 5) (receptor)
chain: QSSERRVVAHMPGDIIIGALFSVHHQPTVDKVHERKCGAVREQYGIQRVEAMLHTLERINSDPTLLPNITLGCEIRDSCWHSAVALEQSIEFIRDSLISSEEEEGLVRCVDGSSSSFRSKKPIVGVIGPGSSSVAIQVQNLLQLFNIPQIAYSATSMDLSDKTLFKYFMRVVPSDAQQARAMVDIVKRYNWTYVSAVHTEGNYGESGMEAFKDMSAKEGICIAHSYKIYSNAGEQSFDKLLKKLTSHLPKARVVACFCEGMTVRGLLMAMRRLGLAGEFLLLGSDGWADRYDVTDGYQREAVGGITIKLQSPDVKWFDDYYLKLRPETNHRNPWFQEFWQHRFQCRLEGFPQENSKYNKTCNSSLTLKTHHVQDSKMGFVINAIYSMAYGLHNMQMSLCPGYAGLCDAMKPIDGRKLLESLMKTNFTGVSGDTILFDENGDSPGRYEIMNFKEMGKDYFDYINVGSWDNGELKMDDDEVWSKKSNIIRSVCSEPCEKGQIKVIRKGEVSCCWTCTPCKENEYVFDEYTCKACQLGSWPTDDLTGCDLIPVQYLRWGDPEPIAAVVFACLGLLATLFVTVVFIIYRDTPVVKSSSRELCYIILAGICLGYLCTFCLIAKPKQIYCYLQRIGIGLSPAMSYSALVTKTNRIARILAGSKKKICTKKPRFMSACAQLVIAFILICIQLGIIVALFIMEPPDIMHDYPSIREVYLICNTTNLGVVTPLGYNGLLILSCTFYAFKTRNVPANFNEAKYIAFTMYTTCIIWLAFVPIYFGSNYKIITMCFSVSLSATVALGCMFVPKVYIILAKPERNVRSAFTTSTVVRMHVGDGKSSSAASRSSSLVNLWKRRGSSGETLRYKDRRLAQHKSEIECFTPKGSMGNGGRATMSSSNGKSVTWAQNEKSSRGQHLWQRLSIHINKKENPNQTAVIKPFPKSTESRGLGAGAGAGGSAGGVGATGGAGCAGAGPGGPESPDAGPKALYDVAEAEEHFPAPARPRSPSPISTLSHRAGSASRTDDDVPSLHSEPVARSSSSQGSLMEQISSVVTRFTANISELNSMMLSTAAPSPGVGAPLCSSYLIPKEIQLPTTMTTFAEIQPLPAIEVTGGAQPAAGAQAAGDAARESPAAGPEAAAAKPDLEELVALTPPSPFRDSVDSGSTTPNSPVSESALCIPSSPKYDTLIIRDYTQSSSSL
modifications: SNAP tag labelled with SBG-JF646
In the case of B1, the “stoichiometry N” value is reported as 2.
